These results are taken from PubChem BioAssay AID488969 (Vanderbilt High Throughput Screening Facility, 2010).

Over roughly 110,000 compounds, “z-score” has its median near -0.1; the highest 2% begin near 2. Some of the results follow. Activity calls are given as the source filed them.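 The calls were made as follows: active = z-score in the third read window above 3 or below -3; inactive = the rest.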 Non-standard residues stand in square brackets, D forms with d. Residues, ends and D or L forms follow the SMILES beside them. ξ: configuration not given here. ξV = CC(C)C(N)C(=O)O

For this assay, the target named is Metabotropic glutamate receptor 8 (Rattus norvegicus) (UniProt P70579). In words: rat mGluR8 modulators via GIRK flux, primary screen, cell-based, thallium flux, HTS (AID 488969). The note with it: HEK293 rat mGluR8, GIRK (G protein-gated inwardly rectifying potassium channel) thallium flux, FluoZin2; at 10 µM; stronger effect = higher value; submaximal glutamate (EC20) added with thallium.
UniProt P70579, sequence (P70579 whole entry, looked up): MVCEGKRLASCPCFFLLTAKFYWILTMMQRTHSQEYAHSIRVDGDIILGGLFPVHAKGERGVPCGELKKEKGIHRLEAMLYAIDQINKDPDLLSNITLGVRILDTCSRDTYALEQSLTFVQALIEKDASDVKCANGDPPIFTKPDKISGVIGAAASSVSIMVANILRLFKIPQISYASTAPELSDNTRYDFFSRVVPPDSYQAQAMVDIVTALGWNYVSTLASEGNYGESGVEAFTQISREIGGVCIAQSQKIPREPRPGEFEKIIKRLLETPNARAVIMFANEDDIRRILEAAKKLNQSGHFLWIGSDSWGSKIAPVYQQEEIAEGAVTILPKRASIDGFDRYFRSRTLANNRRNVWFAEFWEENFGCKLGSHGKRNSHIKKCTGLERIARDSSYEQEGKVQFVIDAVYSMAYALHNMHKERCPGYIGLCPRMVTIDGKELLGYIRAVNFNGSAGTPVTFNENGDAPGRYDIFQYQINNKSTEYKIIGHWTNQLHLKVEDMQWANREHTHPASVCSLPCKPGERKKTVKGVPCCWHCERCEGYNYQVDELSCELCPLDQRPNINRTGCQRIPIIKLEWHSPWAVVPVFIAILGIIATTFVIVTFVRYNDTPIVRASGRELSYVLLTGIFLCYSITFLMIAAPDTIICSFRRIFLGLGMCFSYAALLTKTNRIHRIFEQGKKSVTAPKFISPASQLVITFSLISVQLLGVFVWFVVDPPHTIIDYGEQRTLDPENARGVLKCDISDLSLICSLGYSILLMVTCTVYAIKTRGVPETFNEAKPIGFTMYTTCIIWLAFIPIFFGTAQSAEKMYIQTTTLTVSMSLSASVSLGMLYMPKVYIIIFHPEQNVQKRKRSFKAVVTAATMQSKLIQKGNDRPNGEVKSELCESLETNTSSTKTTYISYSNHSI
`Cn1nc(CC(=O)NCc2cccc3ccccc23)c2ccccc2c1=O` gave a z-score of -0.0446.

In the case of `Cc1ccc2cc(C=O)c(N(C)C)nc2c1`, the z-score is -0.118.

Molecule `COc1ccc(OC)c2c1sc(=NC(=O)c1cccc(N3C(=O)CCC3=O)c1)n2C` gave a z-score of -0.686.

For the molecule `CCS(=O)(=O)N1CCC(C(=O)NCCC2=CCCCC2)CC1`, the z-score was -0.0774.

With `CCOC(=O)C1CCN(c2ncnc3c2[nH]c2cccc(OC)c23)CC1`, the z-score was -1.12.

`CCNC(=O)c1ccc(C2SCC(=O)N2Cc2ccco2)cc1` (centres undefined) had a z-score of 0.887.

Take `CC(=O)NC(C(=O)NCC(N)=O)C(C)C` (centres undefined) (Ac-[ξV]-Gly-NH2): the z-score is -0.00315.

As to `CN(C)/C=C(\C=N\OCc1ccc(Cl)cc1Cl)C(=O)Nc1ccc(Cl)c(Cl)c1`, the z-score was -0.112.

Consider `O=C(CCSCc1cccc(Cl)c1)NCCc1ccc(Cl)cc1`, for which the z-score turned out to be 1.66.

Molecule `Cc1ccccc1Sc1c(C#N)c(-c2ccccc2)nn1C` registered a z-score of -0.00458.

`NC(=O)C[n+]1cccc2ccccc21` returned a z-score of -0.0719.

`COC(=O)NC(=S)Nc1ccc(Oc2ccc(Cl)cc2)c(Cl)c1` returned a z-score of 1.29.

In turn, `CCn1c(COc2ccccc2C)nc2ccccc21` returned a z-score of -1.56.

Take `O=C(CN1CCCCC1)NC(=O)NCc1ccccc1`: the z-score is -0.401.

On to `Oc1c(CN2CCOCC2)cc(COCc2ccccc2)c2cccnc12`, for which the z-score is 0.0807.

`CCOC(=O)c1ccc(COC(=O)CCc2nc3ccccc3[nH]c2=O)o1` had a z-score of -0.139.

In turn, `CC(=O)Nc1ccccc1NS(=O)(=O)c1ccc(Cl)cc1` gave a z-score of -0.305.

In turn, `O=C(c1ccc2snnc2c1)N1CCOCC1` registered a z-score of 0.617.

With `COc1ccc(-c2nc(SCC(=O)N3CCOCC3)n[nH]2)cc1`, the z-score was -0.168.

On to `COc1ccc(NS(=O)(=O)c2cc(NC(=O)c3ccco3)ccc2N2CCCCC2)cc1`, for which the z-score is -0.189.

Molecule `CCOCCCNC(=O)c1ccc(Br)cc1` showed a z-score of 0.881.

`CCCOc1ccc(C(=O)NC(=S)Nc2nc(C)c(C(=O)N(C)C)s2)cc1` displayed a z-score of 0.54.

Turning to `COc1cccc(CNC(=O)Cc2c(C(=O)O)[nH]c3ccccc23)c1`, the z-score was -0.0521.

The molecule `Cc1cc(C)c2nc(-c3ccccn3)cc(C(=O)Nc3ccc(S(=O)(=O)Nc4cc(C)on4)cc3)c2c1` gave a z-score of -0.184.

`Cc1ccsc1C(=O)OCC(=O)Nc1cccc(S(=O)(=O)N2CCOCC2)c1` registered a z-score of -0.329.

With `CN(CCc1ccccn1)C(=O)CN(C)S(=O)(=O)c1ccc2c(c1)c(=O)n(C)c(=O)n2C`, the z-score was found to be 0.578.

Turning to `Nc1ccc2oc(-c3cc(Br)ccc3Cl)nc2c1`, the z-score came out at 0.186.

In the case of `COC(=O)C1=C(C)N(C)C(=O)/C1=C\c1ccco1`, the z-score is -0.144.

Molecule `Cn1c(SCc2ccon2)nc2ccccc2c1=O` displayed a z-score of 0.107.

`O=C(COC(=O)C1CCCCC1)NCCc1ccccc1` gave a z-score of 0.437.

Take `c1ccc2c(CSc3nnc(-c4ccncc4)o3)cccc2c1`: the z-score is -0.132.

For `Cc1ccc(CSCC(=O)N2CCN(c3ccccc3)CC2)cc1`, the z-score was -0.305.

For the molecule `CCOC(=O)c1cccc(NC(=O)/C=C/c2cccc([N+](=O)[O-])c2)c1`, the z-score worked out at 0.839.

For `OCCN1CCN(C(=S)NCCc2ccccc2)CC1`, the z-score was -0.025.

As for `COC(=O)CSc1cc(C)nc2ccc(OC)cc12`, the z-score came out at 0.41.

With `c1ccc(COc2ccc(OCCCN3CCCCC3)cc2)cc1`, the z-score was 2.89.

`COc1ccc(CN2C(=O)C(O)(CC(=O)c3ccc4c(c3)OCO4)c3ccccc32)cc1OC` (centres undefined) had a z-score of -0.536.

Take `COc1cc(S(=O)(=O)NC2CCCC2)c(OC)cc1Cl`: the z-score was -0.256.

As to `Nc1ccc(-c2cc(N)n(-c3ccccc3)n2)cc1`, the z-score is 0.895.

In turn, `CC(C)(C)C(=O)Oc1ccc2cc(-c3ccc4ccccc4n3)c(=O)oc2c1` came in with a z-score of 0.505.

`CCn1c(SCC(=O)N2c3ccccc3CCc3ccccc32)nnc1-c1ccc(OC)cc1` returned a z-score of -0.14.

On to `Cc1cc(Cl)ccc1OCc1n[nH]c(=S)n1C1CCCCC1`, for which the z-score is active: 7.67.

Molecule `Cc1cc(C)c(S(=O)(=O)Nc2ccc3c(c2)CCC3)c(C)c1` yielded a z-score of -0.0119.

Molecule `O=C(Cc1coc2ccc3ccccc3c12)N1CCCC1` came in with a z-score of 0.174.

As to `CSc1nc2nc3c(c(=O)n2[nH]1)CCCC3`, the z-score was 0.0334.

`COc1ccc(C(=O)/C=C/c2ccc(OC3CSC3)cc2)cc1OC`: the z-score was -0.725.

As for `CCOc1ccccc1NC(=O)c1ccc(Cl)c(NC(=O)CC(c2ccccc2)c2ccccc2)c1`, the z-score was -0.336.

Molecule `Cc1sc2ncnc(N(C)Cc3ccco3)c2c1C` displayed a z-score of 0.0956.

The molecule `CCOC(=O)c1c(NC(=O)CN2CCCc3ccccc32)sc(C)c1C` came in with a z-score of -0.0988.

`CCN(CC)S(=O)(=O)c1ccc(NC(=O)CSc2nnc(-c3cccc(OC)c3)n2C)cc1` returned a z-score of -1.33.

Molecule `Cc1cccc(NC(=S)N/N=C/c2cccc([N+](=O)[O-])c2)c1` came in with a z-score of 0.223.

In turn, `COc1cccc(C(=O)Nc2ccc(N3CCCC3)cc2)c1` showed a z-score of -0.381.

`N#CCCN(C(=O)CSc1nc(-c2ccccc2)cn1N)c1ccc(F)cc1` gave a z-score of -0.2.

Turning to `COc1cccc(/C=C2\N=C(c3c(-c4ccccc4)noc3C)OC2=O)c1`, the z-score is -0.0431.

Consider `Cc1cc(C(F)F)nn1CC(=O)NCc1ccccc1F`, for which the z-score was -0.531.

Molecule `COc1cc(OC)c(OC)cc1/C=N/NC(=O)C[n+]1ccccc1` registered a z-score of 0.0607.

As to `CC(C)Nc1nnc(SCC(=O)/C=C2\N(C)c3ccccc3C2(C)C)s1`, the z-score is -0.538.

In the case of `Cc1cccc2cc(C#N)c(SCC(=O)N3CC(=O)Nc4ccccc43)nc12`, the z-score is -0.983.

`Cc1sc2nc(C3CC3)nc(SCC(=O)N3CCCc4ccccc43)c2c1C` yielded a z-score of 0.307.

`COc1ccc(N(CC(=O)N/N=C/c2cccc3c2OCCO3)S(=O)(=O)c2ccc(NC(C)=O)cc2)cc1` showed a z-score of 0.0269.

`O=C(C1CCN(S(=O)(=O)c2cccnc2)CC1)N1CCN(c2cccc(Cl)c2)CC1` had a z-score of -0.337.

The molecule `O=C(CN1C2=NCCCN2c2ccccc21)c1cccc(Br)c1` showed a z-score of -0.104.

For the molecule `O=C(Cn1c(SCC(=O)N2CCCc3ccccc32)nc2ccccc21)N1CCCC1`, the z-score is -0.116.

As to `CCN(CC)c1ccc(C2C(C(C)=O)C(=O)CC(C)(O)C2C(C)=O)cc1` (centres undefined), the z-score was -0.172.

`Cc1ccc(NS(=O)(=O)c2cc(C(=O)N3CCc4ccccc4C3)ccc2Cl)cc1` came in with a z-score of -0.667.

`CCOC(=O)CSc1nc2ccccc2n2cnnc12` had a z-score of -0.0163.

`CCCn1c(SCC(=O)Nc2nnc(-c3ccccc3)s2)nnc1-c1ccccn1` yielded a z-score of -0.176.

In turn, `Cc1[nH]c2c(Cl)cccc2c1CCNC(=O)C1CCCCC1C(=O)OCC(F)(F)F` (centres undefined) displayed a z-score of 0.00323.

In turn, `O=C(NCC1CCCO1)C(=O)NCC(c1ccco1)N1CCN(c2ccc(F)cc2)CC1` (centres undefined) came in with a z-score of -0.341.

Take `Cc1ccc(CNC(=O)C2C3C=CC4(CN(Cc5cccnc5)C(=O)C24)O3)cc1` (centres undefined): the z-score is -0.0986.

Turning to `COCCNC(=O)c1ccc(NS(=O)(=O)c2cc(C)ccc2C)cc1`, the z-score was found to be 0.582.

As for `O=C(NCCN1CCOCC1)c1ccc(CS(=O)(=O)c2ccc(Br)cc2)o1`, the z-score was -0.159.

With `Oc1ccc(Cl)cc1C1=Nc2ccccc2N=C(c2ccco2)C1`, the z-score turned out to be 1.79.

In turn, `Cc1ncc(CO)c(/C=N/NC(=O)c2ccccc2Br)c1O` registered a z-score of 0.871.

In turn, `COc1ccc(S(=O)(=O)N(CC(=O)N2CCN(C)CC2)c2ccc(C)cc2)cc1OC` came in with a z-score of 0.277.

In turn, `CCC(CC)c1nnc(NS(=O)(=O)Cc2ccccc2)s1` returned a z-score of 0.839.

Molecule `CCCOc1ccc(OCCSc2ncccn2)cc1` came in with a z-score of 0.313.

In turn, `O=C(OCC(=O)c1ccc(S(=O)(=O)N2CCCC2)cc1)C1=COCCO1` displayed a z-score of -0.209.

In turn, `CCOC(=O)c1c(C)nc2c3ccccc3ccn12` registered a z-score of -0.389.

On to `Cc1nc(NC(=O)COC(=O)CCS(=O)(=O)c2ccccc2Cl)c(Cl)cc1Cl`, for which the z-score is -1.69.

As to `O=C(Nc1ccc(-c2nnc(-c3ccco3)o2)cc1)C(c1ccccc1)c1ccccc1`, the z-score was -0.0515.

`Cc1ccc2ncnc(Nc3ccc(C)c(C)c3)c2c1`: the z-score was -0.233.

`Cc1ccc(C2CC(=O)c3cnn(-c4nc(C)cc(C)n4)c3C2)cc1` (centres undefined): the z-score is -0.203.

`CCC(C)(C(=O)NC1CCCCC1)N(C)C(=O)c1ccccn1` (centres undefined): the z-score is -0.131.

In turn, `COc1ccc(NC(=O)Nc2cc(C)ccc2OC)cc1` had a z-score of 2.83.

`COc1ccccc1N1CCN(CCN2C(=O)CC(=C3c4ccccc4-c4ccccc43)C2=O)CC1` returned a z-score of 0.0153.

`Cc1nc(SCC(=O)OCc2ccccc2)c(C#N)c(-c2ccccc2)c1C(=O)Nc1ccccc1` showed a z-score of -0.638.

`CC(OC(=O)c1snc(C(=O)NC2CCCCC2)c1N)C(=O)NC(C)(C)C` (centres undefined) yielded a z-score of -0.0824.

Take `CC1(C)Cc2c(cnn2-c2ccccc2)C(=O)/C1=N\NC(=O)c1ccccc1N`: the z-score came out at 0.229.

`COc1ccc(C2CC(c3ccccc3)=NN2C(=O)CSc2ncccn2)cc1` (centres undefined): the z-score was -0.635.

Regarding `NNC(=O)c1cnn(Cc2ccccc2)c1N`, the z-score is 0.0742.

Take `Cc1ccc(S(=O)(=O)c2nc(-c3ccccc3)oc2NCc2cccnc2)cc1`: the z-score was -2.37.

As to `CCOP(=O)(c1ccccc1)C(O)c1ccc(Br)cc1` (centres undefined), the z-score was -0.115.

Take `COc1ccc2[nH]cc(CCNC(=O)C3CCCNC3=O)c2c1` (centres undefined): the z-score was -0.00183.

In turn, `CCCC(=O)c1cc(F)c(N2CCOCC2)cc1C` returned a z-score of -0.198.

`CCCCNC(=O)c1ccc(N2CCOCC2)c(NS(=O)(=O)c2ccc(OC)cc2)c1` showed a z-score of 0.358.

Take `CCN1C(=O)C(CC(=O)Nc2ccc(Br)cc2)N(CCCc2ccccc2)C1=S` (centres undefined): the z-score was -0.204.

The molecule `COc1ccc(OC)c(NC(=O)C2CCCN(S(=O)(=O)c3cccc4nsnc34)C2)c1` (centres undefined) displayed a z-score of 0.0355.

In the case of `COc1ccc(N2C(=O)C3[C@@H](C2=O)C2(Cl)C(Cl)=C(Cl)C3(Cl)C2(OC)OC)cc1` (some centres undefined), the z-score came to 0.105.

Regarding `O=S(=O)(Nc1ccc2nc(-c3ccc(Br)o3)[nH]c2c1)c1ccccc1`, the z-score is -0.849.

In turn, `Cc1ccc(S(=O)(=O)Nc2ccc(-c3nc4cc(NS(=O)(=O)c5ccc(C)cc5)ccc4o3)cc2)cc1` gave a z-score of 0.0536.

Take `c1ccc(-n2c(Cc3cn4ccsc4n3)nnc2N2CCOCC2)cc1`: the z-score is -0.304.

Turning to `COc1cc(NC(=O)Cc2c(C(=O)O)[nH]c3ccccc23)cc(OC)c1OC`, the z-score is -0.207.

Take `CCc1cccc(NC(=O)Cc2cn(C)c3ccccc23)c1`: the z-score was 0.717.

Regarding `S=C(Nc1cccnc1)NC1CCCC1`, the z-score was -0.0835.

As for `Cc1cc(C2=NNC(=NC3CCCCC3)SC2)c(C)n1-c1c(C)n(C)n(-c2ccccc2)c1=O`, the z-score turned out to be 0.562.

In turn, `C=CCOc1ccc(/C=N/N2C(=O)C(CC(=O)Nc3ccc(F)cc3F)SC2=NC)cc1` (centres undefined) had a z-score of 0.119.

Take `CN(C)/C=N/C(=S)Nc1ccc(Br)cc1F`: the z-score was 1.46.

In the case of `CCOc1ccc2[nH]c(C)cc(=O)c2c1`, the z-score came to 0.745.
